Laboratory results from publication PMC4336329 (PLoS ONE, 2015).
Among all 310,000 compounds or so, about 14,000 (4.5%) showed an effect of 50% or more. Effects have a minus sign here. The list shows a part of the results.

These compounds were tested against human ether-à-go-go-related gene (hERG) potassium channel (human, UniProt Q12809) (assay: primary screen, population patch clamp on CHO cells stably expressing hERG).
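Further: peak tail current of the secondary pulse compared with the same well before compound.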

human ether-à-go-go-related gene (hERG) potassium channel, sequence (Q12809 whole entry, looked up): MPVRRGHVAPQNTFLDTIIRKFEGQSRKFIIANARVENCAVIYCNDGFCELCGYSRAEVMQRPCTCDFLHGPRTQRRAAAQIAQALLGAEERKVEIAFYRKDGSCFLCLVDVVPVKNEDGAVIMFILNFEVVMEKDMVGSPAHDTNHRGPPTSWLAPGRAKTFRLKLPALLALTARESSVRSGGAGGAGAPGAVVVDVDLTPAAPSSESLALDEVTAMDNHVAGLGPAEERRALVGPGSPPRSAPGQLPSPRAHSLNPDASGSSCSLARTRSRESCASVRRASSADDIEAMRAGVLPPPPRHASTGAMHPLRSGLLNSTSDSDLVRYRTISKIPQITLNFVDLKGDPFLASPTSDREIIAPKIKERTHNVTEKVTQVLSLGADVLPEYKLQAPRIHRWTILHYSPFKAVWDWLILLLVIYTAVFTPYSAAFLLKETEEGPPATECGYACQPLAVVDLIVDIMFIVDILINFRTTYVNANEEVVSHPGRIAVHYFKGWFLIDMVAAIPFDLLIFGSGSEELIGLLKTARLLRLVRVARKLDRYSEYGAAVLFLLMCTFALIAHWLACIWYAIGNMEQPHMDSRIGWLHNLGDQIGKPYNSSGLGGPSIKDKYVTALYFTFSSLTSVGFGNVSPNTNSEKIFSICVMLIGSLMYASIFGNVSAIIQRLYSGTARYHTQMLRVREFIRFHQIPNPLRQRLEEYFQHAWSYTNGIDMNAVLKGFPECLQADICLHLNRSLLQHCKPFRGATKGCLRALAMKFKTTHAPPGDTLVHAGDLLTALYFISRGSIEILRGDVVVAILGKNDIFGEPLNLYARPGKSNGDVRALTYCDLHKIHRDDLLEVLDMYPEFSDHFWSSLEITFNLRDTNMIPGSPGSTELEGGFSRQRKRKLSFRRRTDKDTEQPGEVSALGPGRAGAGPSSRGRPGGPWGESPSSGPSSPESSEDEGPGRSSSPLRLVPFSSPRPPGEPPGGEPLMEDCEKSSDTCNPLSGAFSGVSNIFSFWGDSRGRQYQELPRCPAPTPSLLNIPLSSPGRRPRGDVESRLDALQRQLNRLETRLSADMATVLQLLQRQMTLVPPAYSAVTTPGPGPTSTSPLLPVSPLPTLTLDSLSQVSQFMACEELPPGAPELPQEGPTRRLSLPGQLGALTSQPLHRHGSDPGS

SMILES | hERG current change (%, negative = inhibition) at 10uM
COC(=O)CC1C(=O)NCCN1C(=S)Nc1ccc(F)cc1 (stereo not shown) | 2.58%
O=C(c1cccs1)C1C(c2ccc(Br)cc2)NC(=S)NC1(O)C(F)(F)F (stereo not shown) | -8.01%
COc1ccc(-c2ocnc2C(=O)N2CCN(Cc3cccnc3)CC2)cc1 | 11%
Cn1cccc1C(=O)OCc1ccc(F)cc1 | 9.61%
CCOc1ccc(Cl)cc1CNCCNCCO.Cl | 24.3%
CCOc1ccc(Cl)cc1S(=O)(=O)N1CCN(c2ccc(C)c(C)c2)CC1 | -0.908%
COC(=O)CCCCC1SCC(NC(=O)c2ccccc2)C1=O (stereo not shown) | -2.45%
CCCCOC(=O)c1ccc(NC(=S)NC(=O)c2c(Cl)cnn2C)cc1 | 1.84%
CSCCC(NC(=O)c1ccc(Cl)cc1Cl)C(=O)NNC(=O)c1ccncc1 (stereo not shown) | -6.73%
O=C(Cc1cccc2ccccc12)NNC(=O)c1cccs1 | 15.7%
COc1ccccc1N1CCN(Cc2ccc(-c3ccccc3[N+](=O)[O-])o2)CC1 | -9.04%
Cc1csc(NC(=O)C2CCCN(S(=O)(=O)c3cccnc3)C2)n1 (stereo not shown) | -11.6%
N#C/C(=C\Nc1ccc(F)c(Cl)c1)C(=O)C1CC1 | 9.37%
Cc1nc2c(C(=O)N3CCOCC3)cnn2c(C)c1Cc1cccc(Cl)c1 | -20%
Cc1cc(C(=O)OCC(=O)N2C(C)CCCC2C)c(C)o1 (stereo not shown) | 9.09%
O=C1CCN(CCc2ccccc2)CCN1[C@H](CSc1ccc(Br)cc1)Cc1ccccc1 | -74.6%
Cc1nc2cncc(Br)c2n1C | 3.58%
COc1cc(C(=O)NC(C)C2CC3CCC2C3)ccc1OC(F)F (stereo not shown) | -17.6%
O=C(Nc1ccc(Cl)cc1C(=O)c1ccccc1Cl)c1ccco1 | 12.7%
Cc1ccccc1C1CC(c2cccs2)=NN1S(C)(=O)=O (stereo not shown) | 24.7%
Nn1c(SCc2c(F)cccc2F)nnc1-c1ccccn1 | 2.69%
O=C(Nc1ccccc1C(=O)O)c1ccc(N2C(=O)C3CC=CCC3C2=O)cc1 (stereo not shown) | 21.3%
COC(=O)[C@H]1C[C@@H]1[C@H](N)c1ccccc1.Cl | 5.51%

SMILES | hERG current change (%, negative = inhibition) at 10uM
CCOC(=O)C1C(=O)CC(C)(O)C(C(=O)OCC)C1c1ccc(Br)cc1 (stereo not shown) | -13.9%
COCCCNC(=O)c1cccc2c(=O)c(C)c(-c3ccccc3)oc12 | -11.3%
O=C(NCCN1CCN(C(=O)c2cccc(Br)c2)CC1)C(=O)NCc1ccccc1 | -70%
O=C(CN1CCN(Cc2ccccc2Cl)C1=O)NCc1ccco1 | 0.608%
Cc1cc(C)cc(NC(=O)Cn2ncn3c(cc4ccccc43)c2=O)c1 | -4.52%
Cc1ccc(CN(C)C(=O)CCc2c[nH]c3ccccc23)o1 | -10.8%
COCc1cc(N2CCOCC2)nc(-c2ccccc2)n1 | 17.4%
CCNC(=S)N1CCCC(C(N)=O)C1 (stereo not shown) | 10.5%
CC(C)[C@H](NC(=O)c1c(F)cccc1F)C(=O)N1CCN(c2ccc(F)cc2)CC1 | -54.2%
COc1ccc(S(=O)(=O)NCCc2cc3ccc(C)c(C)c3[nH]c2=O)cc1 | 17.2%
Cc1ccc(-c2nnn(CC(=O)N(Cc3ccccc3)C(C(=O)NC(C)(C)C)c3ccncc3)n2)o1 (stereo not shown) | -13.7%
CCOc1ncccc1C(=O)N1CCN(S(=O)(=O)c2ccc(Br)cc2Cl)CC1 | 9.97%
O=C(CN1CCN(c2ccccn2)CC1)Nc1ccc(F)cc1.O=C(O)C(=O)O | -47.2%
CN1/C(=C\C(=O)Nc2cccnc2)c2ccccc2CC1(C)C | 1.82%
Cc1cccc(C(=O)NNS(=O)(=O)c2ccccc2)c1O | 9.14%
COc1cccc(C2(O)CC(C(F)(F)F)=NN2C(=O)c2ccccn2)c1 (stereo not shown) | -8.38%
N[C@@H](Cc1ccccc1)C(=O)N1C[C@H]2C[C@@H](C1)c1cccc(=O)n1C2 | 12.1%
CC(C)(C)C(=O)NC(=C(Cl)Cl)P(=O)(O)O | 13.6%
CCOC(=O)c1cc(-c2ccccc2)n(CC(=O)NC(C)(C)C)c1C | -20.9%
CCC1Oc2ccc(C)cc2N(CC(=O)N(Cc2ccc3c(c2)OCO3)CC2CCCO2)C1=O (stereo not shown) | -26.7%
COc1ccc(S(=O)(=O)N2CCOC2CNC(=O)C(=O)NCc2cccnc2)cc1OC (stereo not shown) | -3%
CC(=O)c1ccc(N2CCN(C(=O)CCCn3c(=O)[nH]c4ccc(Br)cc4c3=O)CC2)cc1 | -34.8%
CC(C)C1(C)C(=O)N=C2c3ccccc3C(=O)N21 (stereo not shown) | 12.3%

SMILES | hERG current change (%, negative = inhibition) at 10uM
COc1ccc(NC(=O)CNC(=O)c2ccco2)cc1 | 6.88%
CC1CCCCC1NC(=O)Cn1nnc(-c2ccc(Cl)cc2)n1 (stereo not shown) | 4.54%
O=C(NCC(c1ccco1)N1CCOCC1)c1ccccc1 (stereo not shown) | 25.1%
CCNc1nc(NCC)nc(N(n2cnnc2)S(=O)(=O)c2ccc(C)cc2)n1 | -25.2%
O=C1C2ON(c3ccccc3)C(c3ccccn3)C2C(=O)N1c1ccc(Br)cc1 (stereo not shown) | 2.88%
CCN(C(=O)c1cc2c(=O)n3ccccc3nc2n1CCCOC)C1CCCCC1 | -2.32%
Cc1ccc(C)c(NC(=O)Cn2nnc(C(=O)NCc3ccco3)c2N)c1 | 0.00318%
Cc1ccc(Sc2nc(C)c([N+](=O)[O-])c(C)c2C#N)cc1 | 3.41%
Cc1nc(COc2cccc(Cl)c2)sc1C(=O)/C=C/N(C)C | -3.3%
COc1ccc(/C=N/NC(=O)c2nn(C)cc2Br)cc1CSCc1ccco1 | -50.6%
CCc1cc(=O)[nH]c(SCC(=O)N2CCCC2)n1 | -2.26%
O=C(C1CC1)N1CCc2cc(Br)cc(S(=O)(=O)NCCCN3CCCCC3)c21 | -13.3%
CC1CC(Nc2cccc(O)c2)=CC(=O)O1 (stereo not shown) | 6.19%
COc1cc(O)c(C(CCN2CCCC2)c2cc(OC)c(OC)c(OC)c2)c(OC)c1 (stereo not shown) | -7.35%
CN(CC(=O)Nc1ccccc1C(F)(F)F)C(=O)C1=COCCO1 | -3%
Cc1ccc(-n2c(C)nnc2SCC(=O)NNC(=O)c2ccco2)cc1 | 25.4%
CSc1ccccc1NC(=O)c1cccs1 | -4.87%
NC(=O)C1CCN(C(=O)CSCc2ccccc2Cl)CC1 | 4.53%
COCCn1c(N)c(C(=O)NS(=O)(=O)c2ccc(C)cc2)c(=O)[nH]c1=O | 5.3%
CCNC(=S)NCCN1CCOCC1 | 10.4%
COc1ccc(CN2CC(C(=O)NCCC3=CCCCC3)CC2=O)cc1 (stereo not shown) | 7.77%
CC(C)(C#N)C(C)(C)c1nn[nH]n1 | 5.9%
O=C(N/C(=C/c1cccc([N+](=O)[O-])c1)C(=O)N1CCCCC1)c1ccco1 | -2.24%

SMILES | hERG current change (%, negative = inhibition) at 10uM
Cc1ccc(NC(=O)CSc2nc3[nH]ncc3c(=O)[nH]2)c(C)c1 | 10.6%
OCCCn1c(CCNc2nc(-c3ccc(F)cc3)cs2)nc2cc(C(F)(F)F)ccc21 | -32.3%
O=C(CCn1c(=O)oc2ccccc21)NCCCN1CCOCC1 | 16.9%
O=C(CNC(=O)c1cccs1)N/N=C/c1c(F)cccc1Cl | 20.3%
CC(C)CN1CCC(=O)N([C@H](CSc2ccccc2)Cc2ccccc2)CC1 | -67.9%
Cc1sc2nc(-c3ccc(Br)cc3)oc(=O)c2c1C | 13.3%
C=CCn1c(CCc2cc(C(C)(C)C)c(O)c(C(C)(C)C)c2)n[nH]c1=S | 17.3%
CC1CCN(c2nc(Cl)nc(Nc3ccc([N+](=O)[O-])cc3)n2)CC1 | 9.49%
CC(=O)Nc1ccc(NC(=O)CC(NC(=O)c2ccccc2)c2ccccc2)cc1 (stereo not shown) | 17.4%
Cc1ccc(NC(=O)CCN2CCN(C)CC2)cc1.Cl | 10.6%
Cn1c(=O)c2ncn(CC(=O)NCCC3=CCCCC3)c2n(C)c1=O | -0.718%
CC12CC(c3ccccc3O1)C(C(=O)N1CCOCC1)C(=O)N2 (stereo not shown) | 0.629%
C=CCn1c(=O)c2ccccc2n2c(SCC(=O)Nc3sc(C(=O)N(CC)CC)c(C)c3C(=O)OCC)nnc12 | -52.3%
O=C(CN1CCN(S(=O)(=O)c2ccccc2)CC1)NCc1ccccc1 | 8.36%
CCCOc1nc2c(c(=O)n(C)c(=O)n2C)n1CCC | 5.48%
CN(C)S(=O)(=O)c1ccc(N2CCCC2)c(C(=O)NNC(=O)c2ccc(Br)cc2)c1 | -26.5%
O=S(=O)(Cc1ccc(Cl)cc1)c1ncc(CO)n1Cc1ccccc1 | -5.69%
Oc1ccc(/C=N/n2cc(-c3ccccc3)[nH]c2=S)cc1 | 11%
CCCCCCNc1c([N+](=O)[O-])c(=O)sc2ccccc12 | 14%
Cc1ccc(S(=O)(=O)N2CCCC(C(=O)NCc3ccco3)C2)cc1Cl (stereo not shown) | -1.38%
Cc1c(Cl)cccc1NC(=O)CCN1CCOCC1 | 27.5%
C/C=C\C=C\C(=O)N1CC2(CC(c3cccc(NC(=O)CC(c4ccccc4)c4ccccc4)c3)=NO2)C[C@H]1C(N)=O (stereo partly shown) | 0.883%
